Data reported in the supplement of paper PMC3334620.
In all, about 33,000 sequences were measured (“E-score (-0.5 to 0.5)”: median about -0.043, highest 2% from about 0.37 on). Some of the results follow.

Molecular target: T1, Upc2 (UniProt Q12151)
T1 sequence: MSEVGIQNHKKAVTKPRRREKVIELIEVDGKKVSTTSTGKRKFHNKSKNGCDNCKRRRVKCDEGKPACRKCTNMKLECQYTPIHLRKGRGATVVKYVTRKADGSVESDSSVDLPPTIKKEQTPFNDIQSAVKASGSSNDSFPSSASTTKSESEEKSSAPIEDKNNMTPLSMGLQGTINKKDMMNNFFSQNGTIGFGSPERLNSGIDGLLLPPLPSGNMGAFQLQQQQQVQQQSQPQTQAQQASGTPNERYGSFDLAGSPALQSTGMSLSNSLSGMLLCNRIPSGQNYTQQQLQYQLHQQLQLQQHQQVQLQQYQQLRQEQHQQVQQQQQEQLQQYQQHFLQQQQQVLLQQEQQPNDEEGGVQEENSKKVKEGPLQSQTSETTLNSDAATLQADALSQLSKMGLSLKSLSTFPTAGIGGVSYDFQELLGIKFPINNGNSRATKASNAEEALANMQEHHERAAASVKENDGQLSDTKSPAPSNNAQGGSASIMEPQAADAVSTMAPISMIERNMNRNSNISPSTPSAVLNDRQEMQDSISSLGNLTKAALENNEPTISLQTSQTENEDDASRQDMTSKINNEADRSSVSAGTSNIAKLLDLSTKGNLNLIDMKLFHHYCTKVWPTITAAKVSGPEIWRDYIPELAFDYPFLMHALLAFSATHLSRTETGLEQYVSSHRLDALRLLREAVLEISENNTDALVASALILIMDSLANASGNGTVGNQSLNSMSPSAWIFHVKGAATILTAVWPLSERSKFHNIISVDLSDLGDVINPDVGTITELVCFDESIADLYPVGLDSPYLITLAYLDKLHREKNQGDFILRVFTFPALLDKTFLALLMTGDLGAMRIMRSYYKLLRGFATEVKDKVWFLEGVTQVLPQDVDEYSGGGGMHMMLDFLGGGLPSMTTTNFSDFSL
Assay: PBM E-score (8-mer binding enrichment) (E-score (-0.5 to 0.5)); higher = stronger / more preferred TF binding; most listed sequences are background and not binding sites
Conditions: protein concentration: 200 nM; construct: GST-full length
Experimental: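 Universal 'all 10-mer' protein binding microarrays (Agilent AMADID 015681) probed with GST-tagged S. cerevisiae TFs (full-length or DBD) made by in vitro transcription/translation (PURExpress), about 100-200 nM. Bound TF was detected with fluorescent anti-GST. Each ungapped 8-mer (which stands for itself and its reverse complement) is scored by the PBM enrichment score (E-score), a modified Wilcoxon-Mann-Whitney statistic from -0.5 to +0.5, computed with the Universal PBM Analysis Suite. Scale: above 0.35 generally sequence-specific binding.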

| Sequence | PBM E-score |
| --- | --- |
| GGGGGGAC | -0.217 |
| CCGCTGAG | -0.12 |
| ACTTGGAC | -0.0247 |
| ACCTTCTC | -0.113 |
| ACCTGCCG | -0.0517 |
| CAGTGATG | 0.119 |
| AAAAAATC | -0.0542 |
| AGAACACA | -0.0617 |
| AGGTTAGC | -0.3 |
| CTATGTGA | -0.109 |
| CGAACATA | 0.102 |
| CAGTCAAG | -0.176 |
| GGATCCCA | -0.216 |
| GCACCTAC | -0.2 |
| TAGACCAA | -0.148 |
| AGACATAG | -0.0991 |
| TCAATGAA | -0.0537 |
| ATTGCGCC | 0.0449 |
| AGCGGCTA | -0.164 |
| CGTTCGAC | 0.128 |
| ACCGACTC | 0.125 |
| AGAAATGA | -0.0879 |
| TACCAGAA | 0.0985 |
| ATGACCCC | -0.168 |
| AAGGTCGG | -0.187 |

| Sequence | PBM E-score |
| --- | --- |
| AGCTTCTA | -0.0602 |
| AATAAGTG | -0.15 |
| ACACATCT | -0.114 |
| CCCACTAA | -0.18 |
| CTATTACC | -0.036 |
| ACGGGTAC | 0.302 |
| AAGTAGAG | -0.0604 |
| GGGCTGAC | -0.0227 |
| TAAAATGA | 0.0326 |
| CCAGTGGC | -0.304 |
| GCCCGGCA | -0.0915 |
| CTCAACGA | 0.323 |
| ATGACGCA | 0.0831 |
| ATGGGAGG | -0.164 |
| CGTGGCAC | 0.03 |
| CAGAGTCC | -0.152 |
| CCCAGCTC | -0.348 |
| GAATCCTC | -0.152 |
| CCCTAGCC | -0.116 |
| CTTTAGGC | -0.0253 |
| ACGTACAA | 0.309 |
| ATCGTCTC | -0.067 |
| ACTACTAC | 0.135 |
| TGCATGCA | 0.0414 |
| AGCTCGTA | 0.473 |

| Sequence | PBM E-score |
| --- | --- |
| GCTTTCCC | -0.0723 |
| CTTGTACC | -0.103 |
| CGGGTGTA | 0.0853 |
| TACAGCGA | 0.0182 |
| AAATGGCT | -0.179 |
| ATTCAATG | 0.0611 |
| AAGGTTAC | 0.00672 |
| CGCGGCCG | 0.0649 |
| GTGCTTCA | -0.104 |
| AATGTACG | 0.36 |
| AAGACAAT | -0.127 |
| CCTTCTAC | 0.00675 |
| AGTATAGA | 0.137 |
| ACAGTTCC | -0.102 |
| GGGAAGCA | -0.132 |
| CGCCAGCC | 0.0291 |
| ACACTGGC | -0.00275 |
| CGGCGGAC | -0.126 |
| ACGCCCCA | 0.0653 |
| CTTCTTGC | -0.127 |
| CGTTCCAG | 0.391 |
| TACAGAGA | -0.0478 |
| ATCTCGGC | 0.0485 |
| GCCCATTA | 0.133 |
| CAAAAAAC | 0.00984 |

| Sequence | PBM E-score |
| --- | --- |
| GACAAACC | -0.17 |
| ACAATAAG | -0.0749 |
| GCAACTGC | 0.0352 |
| CCAGAGAA | 0.0427 |
| ACTTGGGG | -0.181 |
| AATGCCCA | -0.275 |
| GACGACTA | -0.171 |
| ACACTATC | -0.0183 |
| TCACACCA | -0.00895 |
| CCTCTCCA | -0.294 |
| CAGAATGC | -0.193 |
| AGCCGGTC | -0.272 |
| GATCCACA | -0.147 |
| AAATTCCG | 0.155 |
| TGCCGGAA | -0.0467 |
| GCTGTTTA | 0.0932 |
| TAAACTAA | 0.212 |
| CGAAGAAA | 0.0142 |
| AGTGATCC | -0.138 |
| CGTCTTCA | 0.0195 |
| ACGGGTGA | 0.0591 |
| GCCCACGC | -0.177 |
| CATAATTC | -0.0886 |
| ACGAGTCA | 0.249 |
| AAATGTAC | 0.193 |

| Sequence | PBM E-score |
| --- | --- |
| CCAAGAGC | -0.175 |
| ATAGGCTC | -0.0162 |
| CCGAAACG | 0.346 |
| CCGGGAGA | -0.316 |
| CCCCAGTA | -0.191 |
| GTCTTAAC | -0.0222 |
| CAATTTAC | 0.104 |
| GATATGCC | -0.0792 |
| CGAGAACA | 0.234 |
| CCGTGGTC | -0.166 |
| GGAAGCCA | -0.418 |
| CCGCACCA | -0.107 |
| CCGAGCAA | 0.0721 |
| CAGATAGA | -0.17 |
| CGTAGTGC | -0.0564 |
| GAATGAAA | -0.00715 |
| CTTATAAG | 0.195 |
| ACTAGATG | -0.122 |
| CGGTGTCA | 0.0288 |
| TCCGACAA | 0.0714 |
| CCTGCCAC | -0.386 |
| CTTTTCGC | 0.093 |
| TCAAAACA | -0.052 |
| AATTTGTC | 0.0333 |
| ATGCTCTA | -0.19 |

| Sequence | PBM E-score |
| --- | --- |
| TATAAGAA | 0.301 |
| CGGGTGAG | -0.215 |
| CAACTCCG | -0.124 |
| AGCTAAGC | -0.0935 |
| ATCCGCAA | -0.112 |
| AACGTAGA | 0.162 |
| CTCTTGCC | -0.16 |
| AACACTCC | -0.12 |
| AAAGCTCC | -0.216 |
| AACGGGTG | 0.259 |
| ACCCGCTG | -0.245 |
| CCCCGGCG | -0.0578 |
| CTCCGACC | -0.18 |
| ATGCCGTC | -0.0321 |
| GCTTAATA | -0.0144 |
| AAACGGGC | 0.395 |
| TCACTCAA | -0.222 |
| GCTTACCC | -0.0189 |
| ATATTTCG | 0.193 |
| AAGTATGC | -0.0575 |
| ATTCGTTG | 0.215 |
| GATGGGAC | -0.0558 |
| GATGTAAC | -0.111 |
| ATGGTCTG | -0.129 |
| CATTCGAA | 0.111 |

| Sequence | PBM E-score |
| --- | --- |
| CCTGCTTC | -0.109 |
| CATATGCA | 0.0275 |
| GGAAGGCC | -0.297 |
| GTGCAAAC | 0.17 |
| ACCCAAAG | -0.216 |
| GTGTAGCA | -0.165 |
| CGGGAGCC | -0.038 |
| CCTGTCCG | 0.0675 |
| AAGGCAGC | -0.18 |
| ACATATTG | -0.182 |
| CACCCGGG | -0.155 |
| CCAGAAAG | 0.0406 |
| CGTCAACA | -0.211 |
| AGCTTAGA | 0.0114 |
| AGGTGATA | -0.0961 |
| CAAGAGTG | -0.109 |
| TACGAAGA | 0.448 |
| AGCTTACT | -0.287 |
| CGATGGTC | 0.0693 |
| CAGCAACA | -0.0473 |
| ATCAATCG | 0.0992 |
| AGGCACCC | -0.303 |
| CCGGGCAC | -0.214 |
| GAAGTCAC | -0.238 |
| CTCTCAAG | -0.308 |

| Sequence | PBM E-score |
| --- | --- |
| ATTGTGCA | -0.0646 |
| ATCGACTG | 0.0556 |
| TATTTACA | 0.00782 |
| CTCCCCCC | -0.323 |
| AGCTCTTC | -0.118 |
| ATTCGGAG | -0.121 |
| CCTTGTAG | -0.276 |
| CATAATGA | -0.119 |
| GGGCCCGA | -0.0269 |
| ATTATAAC | -0.061 |
| CTGGGCCA | -0.311 |
| CCTGGATC | -0.357 |
| CTGCGCAG | 0.049 |
| ATCTTCTC | -0.0622 |
| CTCACGCA | -0.0375 |
| CCATGCCC | -0.298 |
| ACCCGCAA | -0.172 |
| ACTTGTTA | -0.249 |
| CGAACCTA | 0.0247 |
| GCTGGCAA | -0.0682 |
| ATTAGTGC | 0.0587 |
| TCAGGCGA | -0.213 |
| CACAGCGG | -0.185 |
| AATAGGGA | -0.138 |
| GAACAATA | 0.217 |

| Sequence | PBM E-score |
| --- | --- |
| ATGCCAAC | 0.0593 |
| CAACGATA | 0.228 |
| AAATCTAG | -0.0529 |
| GCGACTGA | 0.0026 |
| GTGTTAGA | -0.0373 |
| AGGAGTCG | -0.0517 |
| CAGCACAG | -0.0719 |
| AGATCCGC | -0.172 |
| GGTGTTTA | 0.0236 |
| CCGAGAGG | 0.0477 |
| GTTCGGGA | 0.0695 |
| CAGCCTCG | 0.0297 |
| GAGCAAGA | -0.0392 |
| ATTCCGTG | -0.0761 |
| ACTATCTA | 0.121 |
| CAGAAGAG | -0.205 |
| CCGTCGCG | 0.132 |
| AAATTTGT | 0.103 |
| AGGAAGAT | -0.202 |
